Source: paper PMC7961618, “Inhibitor Development against p7 Channel in Hepatitis C Virus” (Molecules, 2021)

System: HCV (JFH1 strain with adaptive mutations)
Test: microbe, parasite or virus in culture
Type: cell-based
Conditions: compound 12 h, read-out: IC50 against HCV (inhibition of HCV production)
[1] = Hepatitis C virus, Huh-7.5.1, Huh7.5.1 cells infected by JFH1 at MOI 2 for 1 day

CC(N)C12CC3CC(CC(C3)C1)C2 (stereo not shown) [Rimantadine, reference compound] gave an IC50 [1] of 11.9 µM.

In the case of CC1(NCc2nnc(-c3cc(O)cc(O)c3)[nH]2)C2CC3CC(C2)CC1C3 (stereo not shown) [ARD112], the IC50 [1] is reported as 6.42 µM and the IC50 (Huh7.5.1 cells infected by JFH1 at MOI 2 for 1 day) is reported as 6.44 µM.

With NC(CNC(=O)CCOCCC(=O)NCC(N)C12CC3CC(CC(C3)C1)C2)C12CC3CC(CC(C3)C1)C2 (stereo not shown) [ARD87] the IC50 [1] was 5.14 µM.

Read-outs that look alike come from different tables or passages of the source.
